Consider 48 molecules from PubChem BioAssay AID1508642 (National Center for Advancing Translational Sciences (NCATS), 2021).

Hit rate of the full screen: of about 43,000 compounds, about 200 (0.47%) were called active. Not shown: some 12% with an inconclusive outcome. Calls come from the whole dose curve; as a rule, active = well fitted cell-killing curve with a large enough effect; inconclusive = small, poorly fitted or top-dose-only effect, or effect the other way; inactive = flat fitted curve, though single readings scatter. The list shows a part of the results.
% is set by controls: 0 for no effect and ±100 for the full control effect; potency is the fitted concentration of half-maximal effect.

The assay in a line: Cell viability qHTS assay in S16 Pmp22-F2sN cells. Note: nearly all actives have a fitted effect of over 65% in size. Particulars: S16 Pmp22-F2sN Schwann cells viability, CellTiter-Glo, 24 h; series mostly up to 57.5 µM; activity change, negative = cytotoxicity: at the top concentration. Summed up: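 Viability was measured by CellTiter-Glo luminescence (15 min, room temperature). This followed 24 h at 37 °C of compound exposure (23 nL pin transfer) in S16 Pmp22-F2sN Schwann cells, 500-1,000 per well.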
(In general: Quantitative high-throughput screening tests each substance at several concentrations.)
In the case of `COc1ccccc1CNC(=O)CCn1cnc2ccccc2c1=O`, the “activity change, negative = cytotoxicity” value was inactive: -25.1%.
In the case of `O=C(NC1CC(=O)N(c2ccc(F)cc2)C1)c1ccc2c(c1)OCO2` (stereo not drawn), the “activity change, negative = cytotoxicity” value is inactive: 3.49%.
Still for that read-out and setting: the result for `Cc1cccc(N2CCN(C(=O)c3noc4c3CCCCC4)CC2)c1C` reads inactive: -12.3%; that for `Cc1cc(C(=O)C(=O)Nc2nncs2)c(C)n1-c1ccc(Cl)cc1`, inactive: -12.3%.
In the case of `COc1ccccc1NC(=O)c1cn(-c2ccccc2)nc1-c1ccccc1`, the “activity change, negative = cytotoxicity” value is inactive: -8.56%.
For the molecule `CC(NC(=O)c1ccc(F)cc1)c1nc2ccccc2[nH]1` (stereo not drawn), the “activity change, negative = cytotoxicity” value was inactive: 7.75%.
Same read-out and setting: the result for `CCc1ccc(NC(=O)Cn2c(=O)n(-c3cc(OC)c(OC)c(OC)c3)c(=O)c3ccccc32)cc1` reads inactive: -0.0103%; that for `COc1ccc(N2CCN(C(=O)CNS(=O)(=O)c3ccc(Br)s3)CC2)cc1`, inactive: 5.79%.
`N#Cc1nc(/C=C/c2ccc(F)cc2)oc1NCc1ccc(F)cc1`: the “activity change, negative = cytotoxicity” value was inactive: 1.04%.
`Oc1ccc(-c2nc3ccc(Cl)cn3c2Nc2ccc3c(c2)OCO3)cc1`: the “activity change, negative = cytotoxicity” value is inactive: 18.4%.
Still for that read-out and setting: the result for `Cc1ccc(-n2c(=O)c3c(C)c(C)sc3n(Cc3ccc(F)cc3Cl)c2=O)cc1C` reads inactive: -0.535%.
As for `COc1ccc(CCNC(=O)Cc2c(C)c3cc4c(C)coc4cc3oc2=O)cc1OC`, the “activity change, negative = cytotoxicity” value was inactive: 20.1%.
Still for that read-out and setting: the result for `COc1ccc(N(C(=O)c2ccccc2)S(=O)(=O)c2ccc3c(c2)n(C)c(=O)n3C)cc1` reads inactive: -3.89%; that for `O=C(NCc1ccc(Cl)cc1)C1CCN(S(=O)(=O)c2ccccc2)CC1`, inactive: -24%; that for `O=C1CC(=O)Nc2cc(S(=O)(=O)N3CCOc4ccc(Cl)cc43)ccc2N1`, inactive: -15.4%.
Still for that read-out and setting: the result for `Cc1cc(C)c(NS(=O)(=O)c2ccc(-c3coc(C)n3)cc2)c(C)c1` reads inactive: 3.02%.
Still for that read-out and setting: the result for `COc1cc(C(=O)NCc2nc3cccnc3n2Cc2ccc(C)cc2)cc(OC)c1OC` reads inactive: 0.0312%; that for `CC(=O)c1ccc(NC(=O)Cn2ncc3c4ccccc4n(Cc4ccccc4)c3c2=O)cc1`, inactive: 16.3%; that for `CCc1ccc(S(=O)(=O)NCc2nc3cccnc3n2Cc2cccc(OC)c2)cc1`, inactive: 2.28%.
`CCCCCn1c(CNC(=O)c2ccccc2)nc2ccccc21`: the “activity change, negative = cytotoxicity” value is inactive: -0.479%.
The same measure, in the same setting: the result for `CCOc1ccc(NC(=O)Cn2c(=O)n(CCCCC(=O)NCc3ccc4c(c3)OCO4)c(=O)c3ccccc32)cc1` reads inactive: -17%.
Still for that read-out and setting: the result for `CCN(CC)c1ccc(-n2nc3cc(C)c(NC(=O)c4ccccc4C)cc3n2)c(C)c1` reads inactive: 1.38%.
Same read-out and setting: the result for `Cc1cc(C)c(S(=O)(=O)N2CCN(Cc3ccc4c(c3)OCO4)CC2)cc1C` reads inactive: -2.97%.
For `Cc1c(Cl)cccc1Nc1nn2c(=O)c3ccc(C(=O)NCCC4=CCCCC4)cc3nc2s1`, the “activity change, negative = cytotoxicity” value was inactive: -28.1%.
Still for that read-out and setting: the result for `COc1ccc(C2C(C(=O)Nc3ccc(C)cc3C)=C(C)Nc3nc(SCc4cccc(C)c4)nn32)c(OC)c1` (stereo not drawn) reads inactive: 0.989%; that for `Cc1ccc(C)c(N(C)C(=O)Cc2c(C(=O)O)[nH]c3ccc(Cl)cc23)c1`, inactive: 17.4%.
As to `CC(C)(C)CC(C)(C)c1ccc(OCC(=O)Nc2ccc(S(=O)(=O)Nc3ncccn3)cc2)cc1`, the “activity change, negative = cytotoxicity” value was inactive: -29.4%.
Same read-out and setting: the result for `CC1=C(C(=O)Nc2ccc(C)cc2C)C(c2ccc(Br)cc2)n2ncc(C(=O)Nc3cccc(C)c3)c2N1` (stereo not drawn) reads inactive: 3.4%; that for `COc1ccccc1CNC(=O)CSc1nc(=O)[nH]c2c1CCC2`, inactive: 7.35%; that for `COc1ccccc1-c1nn2c(=O)cc(CN3CCN(C(=O)/C=C/c4ccccc4)CC3)nc2s1`, inactive: -25.6%.
The same measure, in the same setting: the result for `COc1cccc(CNC(=O)CN2C(=O)N(c3cccc(Cl)c3)S(=O)(=O)c3ccccc32)c1OC` reads inactive: 14%.
Still for that read-out and setting: the result for `Cc1ccccc1NC(=O)Cn1nnc(C(=O)NCCc2ccccc2)c1N` reads inactive: 8.83%.
For the molecule `CCc1nn2c(=O)c(S(=O)(=O)Nc3ccc(Br)cc3F)c(C)nc2s1`, the “activity change, negative = cytotoxicity” value was inactive: 0.976%.
On the same count and under the same terms, the result for `COc1ccc(C2C=C(c3ccc(Br)cc3)Nc3nnnn32)c(OC)c1` (stereo not drawn) reads inactive: 0.538%.
Turning to `COc1ccc(Nc2cc(C(=O)NC3CCCC3)c3ccccc3n2)cc1`, the “activity change, negative = cytotoxicity” value was inactive: -8.97%.
Regarding `COc1ccccc1CNc1nc2c(S(=O)(=O)c3ccccc3)nnn2c2ccc(Cl)cc12`, the “activity change, negative = cytotoxicity” value is inactive: -20%.
The same measure, in the same setting: the result for `Cc1ccc(NC(=O)c2c(NC(=O)c3ccccc3Cl)sc3c2CCC3)cc1` reads inactive: 7.01%; that for `O=C(CSc1nccn1Cc1ccc(F)cc1)NCc1ccc(F)cc1`, inactive: 8.36%.
Same read-out and setting: the result for `CN1CCN(C(=O)Cn2ncc3c4ccccc4n(Cc4ccc(Cl)cc4)c3c2=O)CC1` reads inactive: 4.47%; that for `Cc1cc(C)c(NC(=O)c2c(C)nn(-c3ccc(F)cc3)c2-n2cccc2)c(C)c1`, inactive: 0.0793%; that for `O=C(CCSCc1ccc(Cl)cc1)NCc1ccc(F)cc1Cl`, inactive: 1.62%.
Still for that read-out and setting: the result for `CS(=O)(=O)N1CCc2cc(C(=O)N3CCN(c4ccccc4F)CC3)ccc21` reads inactive: -13.5%.
As to `CSc1nc(=O)c2c(n1C)NC(=O)CC2c1cc(F)cc(F)c1` (stereo not drawn), the “activity change, negative = cytotoxicity” value was inactive: 2.4%.
Take `CC(=O)c1cccc(NC(=O)Cn2nc(C(F)(F)F)c3c2CCC3)c1`: the “activity change, negative = cytotoxicity” value was inactive: 28%.
As for `NC(=O)c1nn2c(C(F)(F)F)cc(-c3ccc(Br)cc3)nc2c1Cl`, the Potency was active: 28.2 µM.
For `CC1=C(C(=O)OCc2ccc(C)cc2)C(c2cccc(F)c2F)CC(=O)N1` (stereo not drawn), the “activity change, negative = cytotoxicity” value was inactive: 17.3%.
On the same count and under the same terms, the result for `COc1ccc(-c2cc(C(F)(F)F)n3nc(C(=O)Nc4cc(C)ccc4C)cc3n2)cc1` reads inactive: 4.38%.
`Cc1ccc2c(c1)c1c3n2CCN(C(=O)c2ccc(C(F)(F)F)cc2)C3CCC1` (stereo not drawn): the “activity change, negative = cytotoxicity” value was inactive: 6.18%.
